In publication PMC4242493 one finds binding signal (normalized occupancy) data, which are given here for 172 sequences.

Some of the results follow. The list includes weakly bound sequences.

The target of the assay is MaxL homodimer (UniProt P61244). Nature of the assay: universal protein-binding microarray (PBM). The following applies: PBS-based mixture, 10 nM His-tagged protein dimer, 2% milk, 200 ng/uL BSA, 50 ng/uL salmon testes DNA, 0.02% TX-100; detection with Alexa 488 anti-His …; high values mean tight binding; most listed sequences are background and not binding sites; double strand, one strand shown.
UniProt P61244, sequence (P61244 whole entry): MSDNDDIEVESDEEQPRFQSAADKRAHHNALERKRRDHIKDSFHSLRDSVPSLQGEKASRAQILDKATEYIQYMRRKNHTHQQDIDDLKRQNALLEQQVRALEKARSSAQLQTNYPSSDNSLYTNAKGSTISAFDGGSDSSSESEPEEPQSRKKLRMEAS
On to AAGTATCT, for which the binding signal (normalized occupancy) worked out at 0.0762.

TCGGGACA: the binding signal (normalized occupancy) came out at 0.0752.

AACCCTCA: the binding signal (normalized occupancy) is 0.078.

Turning to CAATTAGC, the binding signal (normalized occupancy) came to 0.0696.

Consider ATCATTGA, for which the binding signal (normalized occupancy) was 0.0818.

In the case of GACGGACC, the binding signal (normalized occupancy) worked out at 0.0664.

Consider CAGCGGAA, for which the binding signal (normalized occupancy) worked out at 0.0674.

In the case of TCATTAAA, the binding signal (normalized occupancy) was found to be 0.0798.

In the case of ACATTCAT, the binding signal (normalized occupancy) is 0.0895.

With AGCATAGG, the binding signal (normalized occupancy) amounted to 0.0718.

For GACGTTGC, the binding signal (normalized occupancy) turned out to be 0.0687.

On to CAAAAGGG, for which the binding signal (normalized occupancy) is 0.0694.

As to AACGAGCA, the binding signal (normalized occupancy) worked out at 0.0804.

Turning to GTATGTAA, the binding signal (normalized occupancy) was 0.086.

For CCTGATCA, the binding signal (normalized occupancy) amounted to 0.0815.

For the sequence AACAAAAG, the binding signal (normalized occupancy) was 0.0736.

Consider CGGGCGAC, for which the binding signal (normalized occupancy) was found to be 0.071.

In the case of CTGCATAA, the binding signal (normalized occupancy) turned out to be 0.0739.

Regarding ATTTGTGA, the binding signal (normalized occupancy) turned out to be 0.0802.

As for ATTACATA, the binding signal (normalized occupancy) came out at 0.0851.

AATCTACG: the binding signal (normalized occupancy) stood at 0.0693.

As for AGCGTTCA, the binding signal (normalized occupancy) came to 0.0757.

Regarding GCAACTTA, the binding signal (normalized occupancy) came out at 0.0721.

Consider CACACGCG, for which the binding signal (normalized occupancy) is 0.124.

For the sequence CCTAACAG, the binding signal (normalized occupancy) is 0.0728.

In the case of CGGTGGCA, the binding signal (normalized occupancy) was 0.0801.

Turning to ATACAGGC, the binding signal (normalized occupancy) came to 0.0763.

Take GCAAGAGA: the binding signal (normalized occupancy) was 0.0745.

As to GGTAGGAA, the binding signal (normalized occupancy) was 0.0713.

On to TAATAGAA, for which the binding signal (normalized occupancy) was determined as 0.0818.

As to ACAAAGTC, the binding signal (normalized occupancy) came out at 0.0679.

On to GTAGTGTA, for which the binding signal (normalized occupancy) stood at 0.0717.

Take GCGATATA: the binding signal (normalized occupancy) turned out to be 0.0746.

Consider GCTGCTGA, for which the binding signal (normalized occupancy) is 0.0725.

Turning to ACGGTGCT, the binding signal (normalized occupancy) was 0.0757.

In the case of AATTCATC, the binding signal (normalized occupancy) was 0.0791.

Take GCCCTAAA: the binding signal (normalized occupancy) came out at 0.0737.

TCGTATAA: the binding signal (normalized occupancy) was 0.0765.

As for AGCTAGTC, the binding signal (normalized occupancy) stood at 0.0711.

With ATCGGGGA, the binding signal (normalized occupancy) turned out to be 0.0754.

As for AGTTGCAT, the binding signal (normalized occupancy) was determined as 0.0779.

CTCGTTCC: the binding signal (normalized occupancy) came to 0.0761.

With CGCAGAAC, the binding signal (normalized occupancy) is 0.0697.

Turning to AGAATCAG, the binding signal (normalized occupancy) stood at 0.0794.

For the sequence TGTCGAAA, the binding signal (normalized occupancy) was found to be 0.0778.

Consider AGCCTATA, for which the binding signal (normalized occupancy) stood at 0.0794.

As to ATGTTGAC, the binding signal (normalized occupancy) stood at 0.085.

In the case of AATATATT, the binding signal (normalized occupancy) was 0.0791.

Turning to ATAATACA, the binding signal (normalized occupancy) is 0.0803.

Take CTTGCCCA: the binding signal (normalized occupancy) was 0.0706.

ACGAGAAG: the binding signal (normalized occupancy) is 0.0756.

Consider ACATTTTG, for which the binding signal (normalized occupancy) was 0.0837.

Turning to AACTACGA, the binding signal (normalized occupancy) amounted to 0.0728.

Turning to AAGGAGCA, the binding signal (normalized occupancy) was determined as 0.076.

GATCACTA: the binding signal (normalized occupancy) is 0.0731.

As for ATGTCGGC, the binding signal (normalized occupancy) was 0.0776.

Regarding GTACCTGA, the binding signal (normalized occupancy) is 0.0735.

As to ATAACATG, the binding signal (normalized occupancy) was 0.0981.

Turning to GATCCTAA, the binding signal (normalized occupancy) was determined as 0.0791.

For the sequence CTTCTGCC, the binding signal (normalized occupancy) is 0.0759.

With AAAGAACG, the binding signal (normalized occupancy) amounted to 0.0757.

As for ATGTCCAA, the binding signal (normalized occupancy) was determined as 0.0758.

Turning to ATCGCAGA, the binding signal (normalized occupancy) was 0.0768.

With ACAAGGAG, the binding signal (normalized occupancy) is 0.0757.

Regarding CGTATTAA, the binding signal (normalized occupancy) came out at 0.0762.

With TCGTCACA, the binding signal (normalized occupancy) came out at 0.0793.

With GCAGACCA, the binding signal (normalized occupancy) was 0.0734.

For the sequence ACGTGGAG, the binding signal (normalized occupancy) worked out at 0.0976.

Consider TCCAACCA, for which the binding signal (normalized occupancy) stood at 0.0763.

In the case of GATACGAA, the binding signal (normalized occupancy) worked out at 0.0761.

As to CGCGTCAC, the binding signal (normalized occupancy) came out at 0.0789.

For the sequence CCTCAGGA, the binding signal (normalized occupancy) came out at 0.0751.

As to CATACAAG, the binding signal (normalized occupancy) was found to be 0.0851.

Take CCTGAATA: the binding signal (normalized occupancy) came out at 0.0736.

On to AGTAATCC, for which the binding signal (normalized occupancy) turned out to be 0.0767.

Regarding TCTCTCCA, the binding signal (normalized occupancy) is 0.0821.

For AAGAGCTA, the binding signal (normalized occupancy) was determined as 0.0682.

Regarding AGTGGAAA, the binding signal (normalized occupancy) was determined as 0.0836.

Take ACAACTCG: the binding signal (normalized occupancy) is 0.0787.

GAAACGGC: the binding signal (normalized occupancy) was determined as 0.0677.

AAACCCTA: the binding signal (normalized occupancy) turned out to be 0.0744.

With CATTCACC, the binding signal (normalized occupancy) stood at 0.0836.

Regarding ACGAGATC, the binding signal (normalized occupancy) was 0.0779.

As to AGAGGACC, the binding signal (normalized occupancy) came out at 0.0728.

As for TGTTCGAA, the binding signal (normalized occupancy) was 0.0694.

Turning to AACTATGA, the binding signal (normalized occupancy) was determined as 0.0783.

Regarding AAACAGCG, the binding signal (normalized occupancy) was found to be 0.072.

For the sequence AAAAGGTT, the binding signal (normalized occupancy) came out at 0.071.

For CAACTTTC, the binding signal (normalized occupancy) was 0.0746.

ATACTCAA: the binding signal (normalized occupancy) is 0.0777.

Consider TCGCGAGA, for which the binding signal (normalized occupancy) turned out to be 0.068.

Take ATATCTTC: the binding signal (normalized occupancy) is 0.0807.

With AGAAGTAG, the binding signal (normalized occupancy) came out at 0.0755.

With AGCCCCAT, the binding signal (normalized occupancy) turned out to be 0.0767.

On to AGGAAGAG, for which the binding signal (normalized occupancy) worked out at 0.0724.

AATCCCCT: the binding signal (normalized occupancy) is 0.0758.

On to CAGAGATA, for which the binding signal (normalized occupancy) came out at 0.0737.

Take AGTCAACC: the binding signal (normalized occupancy) is 0.0747.

For GGGTTCAC, the binding signal (normalized occupancy) is 0.0748.

In the case of GAGACCGA, the binding signal (normalized occupancy) stood at 0.0733.

Consider ATCGGCAC, for which the binding signal (normalized occupancy) is 0.0716.

For CCTACCAG, the binding signal (normalized occupancy) was 0.0689.

For ACTCACGC, the binding signal (normalized occupancy) came out at 0.0832.

Consider TTCTACAA, for which the binding signal (normalized occupancy) was determined as 0.0779.

Consider GGTCAGAC, for which the binding signal (normalized occupancy) was 0.0735.

Regarding ATACTACC, the binding signal (normalized occupancy) was found to be 0.0814.

As to ACATCTCC, the binding signal (normalized occupancy) came out at 0.0802.

AACCACCT: the binding signal (normalized occupancy) stood at 0.0839.

Consider ACAGTGGC, for which the binding signal (normalized occupancy) is 0.07.

With ACCCGCAC, the binding signal (normalized occupancy) was found to be 0.083.

For AGAGGCTC, the binding signal (normalized occupancy) was 0.0653.

Turning to CGCGGGTA, the binding signal (normalized occupancy) worked out at 0.0791.

As for ATGAGAAC, the binding signal (normalized occupancy) was 0.0777.

For AAGACGGT, the binding signal (normalized occupancy) came to 0.0701.

ATGCTATA: the binding signal (normalized occupancy) was 0.0889.

Regarding ATCGTTGC, the binding signal (normalized occupancy) was found to be 0.0737.

Take AATAGATA: the binding signal (normalized occupancy) amounted to 0.08.

For GGCCTCGA, the binding signal (normalized occupancy) amounted to 0.0787.

Take ATCCTAAA: the binding signal (normalized occupancy) worked out at 0.0762.

CACTACCA: the binding signal (normalized occupancy) came out at 0.0779.

Regarding AATGTTGC, the binding signal (normalized occupancy) came out at 0.0781.

Regarding AAGGTGGG, the binding signal (normalized occupancy) turned out to be 0.0714.

GCGGAATA: the binding signal (normalized occupancy) stood at 0.075.

Turning to TCCTACGA, the binding signal (normalized occupancy) came to 0.0718.

In the case of AAAAGCTG, the binding signal (normalized occupancy) was 0.0641.

Take ATGAGAGA: the binding signal (normalized occupancy) was determined as 0.0898.

Take CCGGTCAC: the binding signal (normalized occupancy) is 0.0741.

Regarding GTTAGACA, the binding signal (normalized occupancy) was 0.0808.

Take ACTACAAA: the binding signal (normalized occupancy) amounted to 0.0783.

For the sequence CTATCGTA, the binding signal (normalized occupancy) is 0.077.

Consider GTGCTAAA, for which the binding signal (normalized occupancy) came to 0.0773.

As for CTAGAAGA, the binding signal (normalized occupancy) came to 0.0731.

With CTACAACC, the binding signal (normalized occupancy) is 0.0791.

Consider CCAGTTAG, for which the binding signal (normalized occupancy) came to 0.0695.

With CTGGGCCC, the binding signal (normalized occupancy) stood at 0.0669.

Turning to ATGTCTAG, the binding signal (normalized occupancy) was found to be 0.0754.

With CCTAAACC, the binding signal (normalized occupancy) turned out to be 0.0739.

AAGCCGGG: the binding signal (normalized occupancy) turned out to be 0.066.

For AAGCAAGC, the binding signal (normalized occupancy) came out at 0.0685.

With TCCTATAA, the binding signal (normalized occupancy) amounted to 0.0807.

Take CGCACTTA: the binding signal (normalized occupancy) turned out to be 0.0747.

On to GTATCTTA, for which the binding signal (normalized occupancy) turned out to be 0.0758.

As for CAGGACGG, the binding signal (normalized occupancy) turned out to be 0.0678.

On to AGGGCCAC, for which the binding signal (normalized occupancy) amounted to 0.0691.

On to CAGAAGCG, for which the binding signal (normalized occupancy) is 0.0708.

Take GGCGGGCA: the binding signal (normalized occupancy) worked out at 0.0691.

Turning to CTATGAGC, the binding signal (normalized occupancy) was 0.0756.

Turning to CCGTCCCC, the binding signal (normalized occupancy) turned out to be 0.0746.

With GCACACAA, the binding signal (normalized occupancy) was 0.0771.

For the sequence CAGCGCTG, the binding signal (normalized occupancy) amounted to 0.0703.

In the case of AGGTGGGA, the binding signal (normalized occupancy) was found to be 0.0749.

For GCCGTAGA, the binding signal (normalized occupancy) was found to be 0.0724.

Regarding GGTATGAC, the binding signal (normalized occupancy) was 0.0847.

In the case of CAGATGAA, the binding signal (normalized occupancy) was 0.0778.

In the case of TCCAAAGA, the binding signal (normalized occupancy) came to 0.0685.

As for AACCGGAA, the binding signal (normalized occupancy) was 0.0675.

For the sequence ACACTGGA, the binding signal (normalized occupancy) amounted to 0.0764.

As for GCATATCA, the binding signal (normalized occupancy) amounted to 0.0789.

As for GATAAATC, the binding signal (normalized occupancy) worked out at 0.0742.

ATATACGC: the binding signal (normalized occupancy) was determined as 0.08.

On to ATGAACCG, for which the binding signal (normalized occupancy) was determined as 0.0717.

Turning to AGTCAGAG, the binding signal (normalized occupancy) worked out at 0.0732.

As for CATGACAA, the binding signal (normalized occupancy) was 0.0842.

Regarding CGAATAGA, the binding signal (normalized occupancy) came out at 0.0736.

Turning to CGGGCTCA, the binding signal (normalized occupancy) is 0.0689.

As to GACGTACA, the binding signal (normalized occupancy) stood at 0.0745.

As for AATCGATG, the binding signal (normalized occupancy) was found to be 0.0715.

As for CAACGGCC, the binding signal (normalized occupancy) is 0.069.

Take AAACAGGG: the binding signal (normalized occupancy) was found to be 0.0718.

GCGCGAGC: the binding signal (normalized occupancy) was determined as 0.0687.

As for CTTCGTTC, the binding signal (normalized occupancy) is 0.0699.

With ACTGCCTG, the binding signal (normalized occupancy) was determined as 0.0673.
